Article PMC4336329 (PLoS ONE, 2015)
The campaign covered roughly 310,000 compounds. About 14,000 (4.5%) showed an effect of 50% or more. The effect is printed as a negative number. The list shows a part of the results.

target: human ether-à-go-go-related gene (hERG) potassium channel (human, UniProt Q12809); assay: primary screen, population patch clamp on CHO cells stably expressing hERG
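Further: peak tail current of the secondary pulse compared with the same well before compound.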

Chain of human ether-à-go-go-related gene (hERG) potassium channel (Q12809 whole entry, looked up): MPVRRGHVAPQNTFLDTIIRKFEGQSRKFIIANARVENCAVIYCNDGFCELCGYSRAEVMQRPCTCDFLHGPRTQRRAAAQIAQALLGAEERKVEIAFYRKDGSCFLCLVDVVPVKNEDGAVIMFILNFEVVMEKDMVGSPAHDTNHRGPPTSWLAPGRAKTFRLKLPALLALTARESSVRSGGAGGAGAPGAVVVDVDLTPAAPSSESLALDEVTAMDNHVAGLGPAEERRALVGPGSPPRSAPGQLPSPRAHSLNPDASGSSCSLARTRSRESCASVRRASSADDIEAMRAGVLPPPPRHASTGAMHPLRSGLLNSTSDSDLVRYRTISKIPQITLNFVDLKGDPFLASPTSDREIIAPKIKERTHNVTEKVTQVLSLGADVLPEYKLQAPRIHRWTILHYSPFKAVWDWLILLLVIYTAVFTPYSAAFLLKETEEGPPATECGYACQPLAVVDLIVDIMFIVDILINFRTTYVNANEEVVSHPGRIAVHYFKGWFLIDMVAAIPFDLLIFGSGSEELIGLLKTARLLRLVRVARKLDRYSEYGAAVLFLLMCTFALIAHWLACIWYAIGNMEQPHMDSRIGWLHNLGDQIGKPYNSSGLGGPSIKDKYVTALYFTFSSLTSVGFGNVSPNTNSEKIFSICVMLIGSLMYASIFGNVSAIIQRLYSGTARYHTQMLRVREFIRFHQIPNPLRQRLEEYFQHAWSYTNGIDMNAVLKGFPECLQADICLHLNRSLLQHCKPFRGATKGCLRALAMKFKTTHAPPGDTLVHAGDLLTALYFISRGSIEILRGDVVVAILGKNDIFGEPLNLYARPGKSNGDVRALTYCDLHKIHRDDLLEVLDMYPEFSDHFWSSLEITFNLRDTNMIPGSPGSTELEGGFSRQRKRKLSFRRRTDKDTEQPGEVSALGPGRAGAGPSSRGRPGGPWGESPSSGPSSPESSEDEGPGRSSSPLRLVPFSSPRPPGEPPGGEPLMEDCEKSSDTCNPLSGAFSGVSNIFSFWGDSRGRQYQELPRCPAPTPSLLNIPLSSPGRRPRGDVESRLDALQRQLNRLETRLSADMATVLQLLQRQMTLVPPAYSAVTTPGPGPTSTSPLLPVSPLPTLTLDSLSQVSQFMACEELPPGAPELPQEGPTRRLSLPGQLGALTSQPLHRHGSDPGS

Q: Which “hERG current change (%, negative = inhibition) at 10uM” value does the source give for `CC(C)C(=O)N1CCC(n2nccc2NC(=O)CCc2ccccc2)CC1` here?
A: The value was 18.7%.

Q: Which “hERG current change (%, negative = inhibition) at 10uM” value does the source give for `CN(C)C=Nc1ncc2c3ccccc3n(CCN(C)C)c2c1C#N` here?
A: The value was -15.7%.

Q: With `N#Cc1ccccc1OCC(=O)OCC(=O)c1ccc[nH]1` as the compound, how does the “hERG current change (%, negative = inhibition) at 10uM” value read?
A: The value was -12.2%.

Q: How did the “hERG current change (%, negative = inhibition) at 10uM” value turn out when `COc1ccc([C@H]2CC(=O)C=C(c3ccc4c(c3)OCO4)C2)cc1` was run?
A: The value was -22.9%.

Q: `COc1ccc(Nc2oc(-c3cccs3)nc2C#N)cc1` was tested. Which “hERG current change (%, negative = inhibition) at 10uM” value did it give?
A: The value was 15%.

Q: `COc1ccc(-c2cc(C)no2)cc1S(=O)(=O)N1CCN(c2ccc([N+](=O)[O-])cc2)CC1` was tested. Which “hERG current change (%, negative = inhibition) at 10uM” value did it give?
A: The value was -76.2%.

Q: For `Cc1c(Br)c(C(N)=O)nn1C`, which “hERG current change (%, negative = inhibition) at 10uM” value is on record?
A: The value was 6.27%.

Q: How did the “hERG current change (%, negative = inhibition) at 10uM” value turn out when `CCOc1ccc(CN2C(=O)CCC2(C)C(=O)NCc2cccnc2)cc1` (centres unmarked) was run?
A: The value was -27.1%.

Q: With `COC(=O)c1c(CSc2ccc(Cl)cc2)noc1C(=O)NCc1ccco1` as the compound, how does the “hERG current change (%, negative = inhibition) at 10uM” value read?
A: The value was -3.11%.

Q: With `COc1ccccc1OCCCCOc1ccccc1F` as the compound, how does the “hERG current change (%, negative = inhibition) at 10uM” value read?
A: Its value is 4.65%.

Q: How did the “hERG current change (%, negative = inhibition) at 10uM” value turn out when `COc1ccc(OC)c(C(=O)NC2CCSc3ccccc32)c1` (centres unmarked) was run?
A: The value was -0.0849%.

Q: How did the “hERG current change (%, negative = inhibition) at 10uM” value turn out when `CCOc1cccc(/C=N/N2C(=O)CSC2=S)c1O` was run?
A: Its value is 24.2%.

Q: `Cc1ccc(C)c(N(C)C(=O)c2cc3c(=O)[nH]c4ccc(C)cc4c3s2)c1` was tested. Which “hERG current change (%, negative = inhibition) at 10uM” value did it give?
A: The value was -2.75%.

Q: With `Cc1csc(NC(=O)c2oc3ccccc3c2C)n1` as the compound, how does the “hERG current change (%, negative = inhibition) at 10uM” value read?
A: Its value is -9.95%.

Q: Which “hERG current change (%, negative = inhibition) at 10uM” value does the source give for `O=C(CSc1n[nH]c(-c2ccccc2)n1)N1CCOCC1` here?
A: The value was 13.3%.

Q: `CCc1nc2ccccc2c(=O)n1-c1ccc2ccccc2c1` was tested. Which “hERG current change (%, negative = inhibition) at 10uM” value did it give?
A: The value was -16%.

Q: For `Cn1c(C(=O)NCc2ccccc2)cc2oc3ccccc3c21`, which “hERG current change (%, negative = inhibition) at 10uM” value is on record?
A: Its value is 8.77%.

Q: For `COc1ccc(N2CCN(C(=O)CCCN3C(=O)c4cccc5cccc(c45)C3=O)CC2)cc1`, which “hERG current change (%, negative = inhibition) at 10uM” value is on record?
A: The value was 8.04%.

Q: Which “hERG current change (%, negative = inhibition) at 10uM” value does the source give for `COc1ccc(NC(=O)CSc2nc(NS(=O)(=O)c3ccc(C)cc3)cc(=O)[nH]2)cc1` here?
A: Its value is 1.41%.

Q: For `CC(C)N1CCC(N2CCN(Cc3ccc(-c4ccccc4Cl)o3)CC2CCO)CC1` (centres unmarked), which “hERG current change (%, negative = inhibition) at 10uM” value is on record?
A: The value was -66.6%.

Q: For `Cc1cc(C)n(C(=O)Cn2nc([N+](=O)[O-])c(Br)c2C)n1`, which “hERG current change (%, negative = inhibition) at 10uM” value is on record?
A: The value was 2.9%.

Q: How did the “hERG current change (%, negative = inhibition) at 10uM” value turn out when `COc1ccc(NC(=O)CSc2nnc(-c3ccccc3F)n2C2CC2)cc1S(N)(=O)=O` was run?
A: Its value is 19.7%.

Q: How did the “hERG current change (%, negative = inhibition) at 10uM” value turn out when `O=C(NCC1CCCO1)c1cccc(S(=O)(=O)NCc2ccccc2)c1` (centres unmarked) was run?
A: Its value is 6.02%.

Q: `Cc1cc(C)cc(NC(=O)Nc2ccc3c(c2)CCC3)c1` was tested. Which “hERG current change (%, negative = inhibition) at 10uM” value did it give?
A: The value was 19.7%.

Q: For `CC(=O)Nc1ccc(C(=O)OCC(=O)NC2CCCCCCC2)cc1`, which “hERG current change (%, negative = inhibition) at 10uM” value is on record?
A: Its value is 15.2%.

Q: `Cc1cccn2c(=O)c(C(=O)NC3CCCCC3)c(O)nc12` was tested. Which “hERG current change (%, negative = inhibition) at 10uM” value did it give?
A: Its value is 31.3%.

Q: How did the “hERG current change (%, negative = inhibition) at 10uM” value turn out when `OCCC1CN(Cc2ccc(Oc3ncccn3)cc2)CCN1C1CCCCC1` (centres unmarked) was run?
A: The value was -7.34%.

Q: With `Cc1ccccc1OCC1Cn2c(nc3c2c(=O)[nH]c(=O)n3C)O1` (centres unmarked) as the compound, how does the “hERG current change (%, negative = inhibition) at 10uM” value read?
A: Its value is -8.46%.

Q: `NC(=O)CC1Nc2cccc3cccc(c23)NC1=O` (centres unmarked) was tested. Which “hERG current change (%, negative = inhibition) at 10uM” value did it give?
A: The value was 8.93%.

Q: With `Cc1nn(C)c(C(=O)Nc2ccn(C34CC5CC(CC(C5)C3)C4)n2)c1[N+](=O)[O-]` as the compound, how does the “hERG current change (%, negative = inhibition) at 10uM” value read?
A: Its value is -10.7%.

Q: How did the “hERG current change (%, negative = inhibition) at 10uM” value turn out when `CC(C(=O)OCC(=O)c1ccccc1)N1C(=O)c2ccccc2C1=O` (centres unmarked) was run?
A: Its value is -2.02%.

Q: With `O=C(CN1CCN(C(=O)COc2cccc(F)c2)CC1)Nc1ccc(Cl)c(C(F)(F)F)c1` as the compound, how does the “hERG current change (%, negative = inhibition) at 10uM” value read?
A: The value was -60.6%.

Q: Which “hERG current change (%, negative = inhibition) at 10uM” value does the source give for `COc1ccc(NC(=O)c2nc[nH]c2C(=O)NCC(=O)OC(C)(C)C)cc1` here?
A: Its value is -18.6%.

Q: For `O=C1C=CC(=O)N1c1ccc(OC(F)F)cc1`, which “hERG current change (%, negative = inhibition) at 10uM” value is on record?
A: Its value is -2.06%.

Q: Which “hERG current change (%, negative = inhibition) at 10uM” value does the source give for `O=C(CN1CCN(c2ccc(O)cc2)CC1)Nc1cc([N+](=O)[O-])ccc1Cl` here?
A: Its value is -3.23%.

Q: `Cc1ccc(S(=O)(=O)NCC(=O)OCc2cc(=O)oc3c(C)c(C)ccc23)cc1C` was tested. Which “hERG current change (%, negative = inhibition) at 10uM” value did it give?
A: The value was -16.7%.

Q: Which “hERG current change (%, negative = inhibition) at 10uM” value does the source give for `CCN(CC)C(=O)Oc1ccc(Cl)c2cccnc12` here?
A: The value was -5.04%.

Q: For `Cc1ccc(C(=O)CNc2ccc(Br)cc2)cc1`, which “hERG current change (%, negative = inhibition) at 10uM” value is on record?
A: The value was 2.81%.

Q: For `COc1cccc(-n2cc(CNCc3c(C(=O)N(C)C)nc4ccc(Cl)cn34)cn2)c1`, which “hERG current change (%, negative = inhibition) at 10uM” value is on record?
A: The value was -55.9%.

Q: Which “hERG current change (%, negative = inhibition) at 10uM” value does the source give for `O=C1c2ccc(-c3ccc(F)cc3OCc3ccccc3)cc2S(=O)(=O)c2cccc(C(=O)N3CCCC3)c21` here?
A: Its value is 13.1%.

Q: For `COC(=O)Cn1ncn2c(cc3oc(C)cc32)c1=O`, which “hERG current change (%, negative = inhibition) at 10uM” value is on record?
A: Its value is 13.1%.

Q: With `CCn1c(SCc2nc3ccccc3c(=O)[nH]2)nc2ccccc21` as the compound, how does the “hERG current change (%, negative = inhibition) at 10uM” value read?
A: The value was -12.4%.

Q: For `COc1ccc(C(=O)Nc2ccccc2Cc2ccccc2)c(OC)c1`, which “hERG current change (%, negative = inhibition) at 10uM” value is on record?
A: Its value is -16.1%.

Q: With `Cc1ccccc1OCCn1cc(C(=O)O)c2ccccc21` as the compound, how does the “hERG current change (%, negative = inhibition) at 10uM” value read?
A: The value was 15.3%.
